Several values for one entry are separate records, joined by “and”; a condition that tells them apart may be missing. Equal values may be shown once. Further values from the same series stand in other lists.
Assay: Urinary excretion (bioavailability) after intravenous, oral and nasal administration in the rat; drug in urine determined by muscarinic receptor binding assay
Format: in vivo, male Sprague-Dawley rats
Settings: 2 mg/rat
Method: As a representative drug of this class of compounds N-cyclopropylmethylscopolamine bromide was employed in the method and in the compositions according to the present invention. The bioavailability of this compound after administration by nasal and oral route has been examined and then compared by the following general method. The investigated drug was administered in equal doses by the nasal, oral and intravenous route. 6, 12 and 24 hours after administration the quantitative excretion into the urine for any of the routes of administration was studied. The total amount of the drug excreted during the investigated time intervals was expressed as percentage of the intravenously eliminated amount, considering the latter value as an equivalent for 100% bioavailability.
In detail the following studies have been carried out. For each experiment 10 male Sprague-Dawley rats, weighing 280+ 20g have been used. For the i.v. administration rats fasted for 18 hours were anaesthetized by intraperitoneal sodium pentobarbital solution 2 ml/kg corresponding to 60 mg/kg/rat. A 4% solution of the drug in buffered saline (pH=7.4) was injected into the femoral vein ([…] corresponding to 2 mg of the active ingredient). For the oral administration 18 hours fasted and conscious rats received an 0.2% solution of the drug in saline by means of a stomach tube (1 ml/rat corresponding to 2 mg of the active principle). For the nasal administration the investigated compounds, for example N-cyclopropylmethyl scopolamine bromide, was administered to 18 hours fasted and as above described anaesthetized rats at a dose of 2 mg/rat.
This dose corresponds either to 25µl of saline (4% solution) or 5 mg of a 20% gel introduced into both nasal cavities by means of micropipette. After the administration by any route the animals were transfered into metabolic cages and received 3 ml of water by stomach tube. The urine was collected 6,12 and 24 hours after administration and the excreted drug was determined with the following original method which is based on the binding affinity of the drugs to their pharmacological receptors. […] It follows from this that knowing the affinity of the drugs it is possible to assay the concentration of the drugs in biological fluids. For this a suitable in vitro receptor preparation and a radio ligand that can bind specifically to the receptor and can be displaced by the test compound is needed. In the present invention tritiated N-methyl- scopolamine (^3H-NMS) in a final concentration of 3.10^-10M that occupies 50% of the muscarinic receptors was employed. As in vitro receptor preparation we used a homogenate from rat cerebral cortex diluted 1:3000 in 20 mM HEPES, 100 mM NaCl and 10 mM MgCl2 (pH 7.4). After incubation of ^3H-NMS with the receptor preparation receptor bound ligand was separated from free ligand by centrifugation and the amountof the receptor bound ligand was measured as radioactivity (dpm) in the pellet.

**Q.** Which “amount of the compound found in the urine” value (from here on “amount of the compound found”) (intravenous, hours 0-6, mean of 10 rats, 360 min) does the source give for `C[N+]1(CC2CC2)C2CC(OC(=O)C(CO)c3ccccc3)CC1C1OC12` (centres unmarked) [N-cyclopropylmethylscopolamine bromide] here?
**A.** 23.34 percentage of the total administered dose

**Q.** What about the “amount of the compound found” value (intravenous, hours 0-24, mean of 10 rats, 1440 min) of the same compound?
**A.** 26.52 percentage of the total administered dose

**Q.** And the “amount of the compound found” value (intravenous, hours 6-12, mean of 10 rats, 720 min)?
**A.** 2.24 percentage of the total administered dose

**Q.** What about the “amount of the compound found” value (intravenous, hours 12-24, mean of 10 rats, 1440 min) of the same compound?
**A.** 0.94 percentage of the total administered dose

**Q.** And the “amount of the compound found” value (nasal, gel, hours 0-6, individual rats, 360 min)?
**A.** 1.08 percentage of the total administered dose and 2.31 percentage of the total administered dose and 2.20 percentage of the total administered dose

**Q.** What about the “amount of the compound found” value (nasal, gel, hours 0-6, mean of 10 rats, 360 min) of the same compound?
**A.** 2.39 percentage of the total administered dose

**Q.** And the “amount of the compound found” value (nasal, gel, hours 0-24, individual rats, 1440 min)?
**A.** 3.05 percentage of the total administered dose and 2.82 percentage of the total administered dose and 6.86 percentage of the total administered dose and 5.59 percentage of the total administered dose

**Q.** And the “amount of the compound found” value (nasal, gel, hours 0-24, mean of 10 rats, 1440 min)?
**A.** 6.06 percentage of the total administered dose

**Q.** What about the “amount of the compound found” value (nasal, gel, hours 6-12, individual rats, 720 min) of the same compound?
**A.** 1.00 percentage of the total administered dose and 2.18 percentage of the total administered dose and 2.35 percentage of the total administered dose

**Q.** What about the “amount of the compound found” value (nasal, gel, hours 6-12, mean of 10 rats, 720 min) of the same compound?
**A.** 2.36 percentage of the total administered dose

**Q.** What about the “amount of the compound found” value (nasal, gel, hours 12-24, individual rats, 1440 min) of the same compound?
**A.** 0.05 percentage of the total administered dose and 0.74 percentage of the total administered dose and 2.37 percentage of the total administered dose and 1.04 percentage of the total administered dose

**Q.** And the “amount of the compound found” value (nasal, gel, hours 12-24, mean of 10 rats, 1440 min)?
**A.** 1.31 percentage of the total administered dose

**Q.** What about the “amount of the compound found” value (nasal, solution, hours 0-6, mean of 10 rats, 360 min) of the same compound?
**A.** 5.63 percentage of the total administered dose

**Q.** What about the “amount of the compound found” value (nasal, solution, hours 0-24, mean of 10 rats, 1440 min) of the same compound?
**A.** 6.10 percentage of the total administered dose

**Q.** And the “amount of the compound found” value (nasal, solution, hours 6-12, mean of 10 rats, 720 min)?
**A.** 0.38 percentage of the total administered dose

**Q.** What about the “amount of the compound found” value (nasal, solution, hours 12-24, mean of 10 rats, 1440 min) of the same compound?
**A.** 0.09 percentage of the total administered dose

**Q.** What about the “amount of the compound found” value (oral, hours 0-6, mean of 10 rats, 360 min) of the same compound?
**A.** 0.27 percentage of the total administered dose

**Q.** What about the “amount of the compound found” value (oral, hours 0-24, mean of 10 rats, 1440 min) of the same compound?
**A.** 0.37 percentage of the total administered dose

**Q.** What about the “amount of the compound found” value (oral, hours 6-12, mean of 10 rats, 720 min) of the same compound?
**A.** 0.08 percentage of the total administered dose

**Q.** And the “amount of the compound found” value (oral, hours 12-24, mean of 10 rats, 1440 min)?
**A.** 0.02 percentage of the total administered dose
